Results from PubChem BioAssay AID1346428 (National Center for Advancing Translational Sciences (NCATS), 2018).
The whole screen tested about 48,000 compounds, of which about 1,200 (2.5%) were called active. Inconclusive results (about 2%) are left out.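 The calls were made as follows: active = activation of at least 60% and not above a set upper limit (about 1 call in 100 departs from these limits); inconclusive = activation of 40% to 60%, or above that upper limit; inactive = activation under 40%.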 The list shows a part of the results.

biological target: Probable G-protein coupled receptor 32 (Homo sapiens) (UniProt O75388); experiment: qHTS for Agonists of Human Resolvin D1 Receptor DRV1; details: CHO-K1 GPR32 beta-arrestin PathHunter luminescence, 90 min; at 76.9 µM; stronger effect = higher value; zero percent set by DMSO-only wells; also: 0% is about no effect
Chain of UniProt O75388 (O75388 whole entry, looked up): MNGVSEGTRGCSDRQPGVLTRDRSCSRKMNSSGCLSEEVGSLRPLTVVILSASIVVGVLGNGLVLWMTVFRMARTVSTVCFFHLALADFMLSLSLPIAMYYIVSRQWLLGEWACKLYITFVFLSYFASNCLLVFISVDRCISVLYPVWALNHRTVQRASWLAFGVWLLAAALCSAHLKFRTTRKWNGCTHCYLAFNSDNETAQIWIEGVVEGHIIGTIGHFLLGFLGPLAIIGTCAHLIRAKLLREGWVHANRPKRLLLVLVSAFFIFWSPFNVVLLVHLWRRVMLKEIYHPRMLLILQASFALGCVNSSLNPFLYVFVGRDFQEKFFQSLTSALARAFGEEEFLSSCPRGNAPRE
Procedure, shortened: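 Readings come from a cell-based beta-arrestin complementation format: CHO-K1 GPR32 stable cells (2,500/well) treated 90 min with compounds, then beta-Gal substrate added for 1 h before chemiluminescence imaging.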

activation, inactive:
CCCCCCOc1ccc(C2C(=O)N(C3CCCCC3)CC(=O)N2CCC)cc1 (configuration not stated) -23.6%
N#C/C(=C\c1ccc(Cl)cc1Cl)c1nc(-c2cccc(Cl)c2)cs1 5.28%
CCOc1ccccc1N(CC(=O)NCCSc1ccccc1)S(=O)(=O)c1ccccc1 10.5%
CC(C)c1ccc(CN(Cc2ccco2)c2cnc(S(C)(=O)=O)nc2C(=O)Nc2ccc(F)cc2)cc1 -4.68%
Cc1ccc(C(=O)Nc2cc3nn(-c4ccccc4)nc3cc2Cl)c(C)c1 -9.86%
Cc1cccc(N2CCN(C(=O)Nc3cn(CC(C)C)c(=O)c4ccccc34)CC2)c1C -7.62%
Cc1nnc(N2CCC(C(=O)NCCc3ccccc3Cl)CC2)c2nn(-c3ccccc3)c(C)c12 -9.76%
COc1ccccc1Cc1nc2ccccc2nc1SCC(=O)N(C)c1ccc(F)cc1 -14.5%
CCc1nn(CC(=O)NCCCN(CC(C)C)CC(C)C)c(=O)c2cc3sc(C)cc3n12 -7.17%
COc1ccccc1N1CCN(C(=O)Cn2cnc3onc(-c4ccc(F)cc4)c3c2=O)CC1 19%
CCCCN(C)C(=O)C1CCCN(c2ncnc3onc(C)c23)C1 (configuration not stated) 40.3%
CCOc1ccc(C(=O)Nc2cccc(-c3nc4cc(Cl)cc(Cl)c4o3)c2)cc1 -2.67%
COc1ccc(Cn2c(=O)c3oc4ccccc4c3n(Cc3cccc(C(F)(F)F)c3)c2=O)cc1 -27.3%
Cc1nn(-c2ccccc2)c2c1N(CC(=O)N1CCN(c3cccc(Cl)c3)CC1)C(=O)CS2 -14.9%
O=C(c1ccc2c(=O)n(CCc3ccccc3)c(=O)[nH]c2c1)N1CCN(c2ccc(F)cc2)CC1 12%
COc1cccc(N2CC(NC(=O)c3ccco3)CC2=O)c1 (configuration not stated) -4.76%
CC(=O)c1cccc(NC(=O)c2cc(-c3ccc(Cl)s3)nc3ccccc23)c1 0.541%
COc1ccc(NC(=O)CC2C(=O)N(c3cccc(C)c3)C(=O)N2C2CCCCC2)cc1 (configuration not stated) 8.23%
OCC1NCC(O)C(O)C1O (configuration not stated) 6.12%
COc1ccc(-c2nnc(SCC(=O)Nc3ccc(C(C)C)cc3)nc2-c2ccc(OC)c(OC)c2)cc1OC -19.3%
CC(C)c1ccc(S(=O)(=O)c2nnn3c2nc(N2CCCCC2)c2sccc23)cc1 -12.7%
CCC(C)(Oc1ccc(C2(c3ccc(OC(C)(CC)C(=O)O)cc3)CCCCC2)cc1)C(=O)O (configuration not stated) 5.35%
Cc1ccc(C)c(Cn2c(-c3cccs3)nc3ccccc32)c1 -27.7%
Cc1ccc(C)c(CN2C(=O)N(c3cc(Cl)ccc3C)S(=O)(=O)c3ccccc32)c1 33.9%
CC(C)Cc1ccc(S(=O)(=O)Nc2cc3c(cc2N2CCOCC2)n(C)c(=O)c(=O)n3C)cc1 20.8%
CCOc1ccccc1CNS(=O)(=O)c1ccc2[nH]c(=O)ccc2c1 32.4%
COc1cccc(C(=O)Nc2ccc(-c3cc(C(F)(F)F)nn3-c3ccccc3)cc2)c1 -9.6%
COc1ccc(NC(=O)CSc2nnc(NC(=O)Nc3ccc(OC)cc3)s2)cc1 -2.52%
CCN(CCCNC(=O)CN1N=C(c2ccc(OC)cc2)CCC1=O)c1cccc(C)c1 -15.5%
CCC(C(=O)Nc1c(C)cc(C)cc1C)n1c(=O)c(-c2ccccc2NC(C)=O)nc2ccccc21 (configuration not stated) -0.494%
CN(Cc1ccccc1)S(=O)(=O)c1cc(Br)cc2c1N(C(=O)C1CC1)CC2 5.2%
CCOC(=O)C1CCCN(C(=O)c2cc3c(=O)[nH]c4ccc(C)cc4c3s2)C1 (configuration not stated) 28.6%
COc1cccc(Nc2sc(C(=O)c3ccc(F)cc3)c(N)c2C(=O)NCc2ccc(Cl)cc2)c1 4.25%
CCOc1ccc(CCNC(=O)CCCn2nc(C)c3sc4ccccc4c3c2=O)cc1 -17.6%
CCCCN(C)CCCNC(=O)c1cc(-c2ccc(Br)s2)nc2ccccc12 7.67%
COc1ccc(-c2ccc(NS(=O)(=O)c3ccc(C(C)=O)cc3)cc2)nn1 -21%
Cc1ccc(NS(=O)(=O)c2c(C)[nH]c(=O)[nH]c2=O)c(C)c1 4.76%
COc1cccc(N2CC(NC(=O)CCCc3ccccc3)CC2=O)c1 (configuration not stated) -2.79%
Cc1ccc(-c2noc(CNC(=O)c3ccc(Br)o3)n2)cc1 -10.7%
CSc1ccc(CCNC(=O)c2cnc3c(C)cccn3c2=O)cc1 -7.52%
CCc1nnc(NC(=O)CSc2nccn2-c2ccc(OC)cc2)s1 -21.6%
CCn1c(C)c(C2N3CC4(C)CN2CC(C)(C3)C4=O)c2ccccc21 (configuration not stated) -2.91%
Cc1nc(C)c(-c2ccc(SCC(=O)Nc3ccc(Br)cc3)nn2)s1 15%
CC(=O)c1cccc(-n2c(=O)c3c4c(sc3n(CC(=O)c3ccccc3)c2=O)CN(C(C)=O)CC4)c1 -0.151%
CC(=O)c1cc2c(cc1N/C(=N/S(=O)(=O)c1ccc(Cl)cc1)c1ccc(F)cc1)OCO2 -6.52%
Cc1ccc(C)c(CN2C(=O)c3ccccc3S(=O)(=O)c3ccc(C(=O)N(C)C4CCCCC4)cc32)c1 -25.7%
Cc1nn(-c2ccccc2)c(OC(=O)C(C)C)c1Sc1ccc(Cl)cc1 14.6%
Cc1ccc(CNC(=O)CCCCCn2c(=O)[nH]c3ccccc3c2=O)cc1 -6.59%
Cc1ccc(/C=C/c2onc(C)c2S(=O)(=O)N2CCC(C(=O)Nc3ccc(C)c(N(C)C)c3)CC2)cc1 -16.1%
COc1cc(C(=O)Oc2c(Sc3ccccc3)c(C)nn2-c2ccccc2)cc(OC)c1OC 12.1%
CCc1ccccc1NC(=O)Nc1c[nH]c(=O)[nH]c1=O -7.22%
Cc1ccc(C)c(N2CCN(C(=O)c3ccc(NC(=O)c4nsc5ccccc45)cc3)CC2)c1 -17.9%
